Source: the supplement of paper PMC12632987
Whole data set: some 2,300 sequences, median “median log2 fold change of GCK-ALFA target abundance (FLAG IP / Myc IP barcode read proportion)” near 0.095, cut for the lowest 2% near -0.47. Some of the results follow.

B1: LC3A_3_1859 (protein)
chain: MEEIKKEIIELLKSLGRSEEVIEAAERLANLLIERGYKEALETLLEELKKLKDVSDEILLAMFEDLIEALETEDLSEEELIERIEEEARIALNDQEIEEL
B2: LC3A_147_464 (protein)
chain: MKYRVELDVLVKNLTPELLADFEELAEEIKKKFPDAEVELKVETDPEDPSLSLVTLTVTVDTEEDAKKIEDFLDKKLEELEKKYKDQILASMISREKVEP
B3: LC3A_28_1046 (protein)
chain: MELEKSAEAAIAEAKAQFAQGEEAVVTLKVPNIDTETAKKIVTETLETLIALSKEHGGQKVHVVIDLDGDQETLNAIIDVAEAAEAADPNLTVIIAYNDK
B4: LC3A_28_1258 (protein)
chain: SPLEENLKAAIEEVEKAVAKGEEAVVTITVPAGITEEEVEKVIETMEKIAEIGKDLKSVTIIVDVEKGVDQKHIDKLADKGEELEKKYPNLTVIFALEEE
B5: LC3A_3_1868 (protein)
chain: MDEIIEEILKLLKELGRSEETIEAAKKLLEALKEKGYENAAKTLLEELKKLKNVSDEDLKAMFEELLKAVTEENLNEEETIKLINEEASILLNDLEIEEL
B6: LC3A_28_1309 (protein)
chain: SRLEERFEAAIKEAEEAAKKGEEVVVTIDITAEEAREHLEEILELLERLAEVASKVPNAVIIIDVDEKVPQEELDAITDKADELEEKYPNVTVIIAISDE
B7: LC3A_17_586 (protein)
chain: SEEIKKELEELLKKLEALIKEAKALGLPEAEKIEKLLKEAKKKLKEGDLKEAAKLLEKAADLLADAFAEIEDEKGDLASLLEMEASGLELEAIRLLLKLE
B8: LC3A_141_356 (protein)
chain: KELKLTYTIEAETPEEAIKKLEEVYEEIKKLMEEKGFKKVEITVTIKTKNKETGETETKTIKETVTKENIDLVFDSLIIEVASAALKGKVTVTVEATLIE
B9: LC3A_3_1827 (protein)
chain: LEERIEETEELLREAGHSEETIEAFREAAELLKEKGYEKALETLIELLRENIDMPSDLLLEFLKEVKELVETSDLSEEELSEEIKKLAELYRNEYEIEEL
B10: LC3A_free_8_2442 (protein)
chain: SNQELVDKSLKLLDELEKEIEKWAKELGIDETDLGELLLLVGSAISDVISNSDKSPEEIFKILKEDLEEILEEAKKISEELYEKIKEKIEKILKEVEKLL
B11: LC3A_28_1241 (protein)
chain: MEIEKQIEEAKKKVEEAVKKGEEALVELTVDGNATPEDVDKVIEAMEEIAELGKDLPSLDIIVNVSAGVPQEHIDKLADAGEEIEKKYPNVTVIIALEER
B12: LC3A_17_531 (protein)
chain: KEELKKELEELLKEAKELIKEIKKRDPEAAKKLEKQLKEAEKLLKEGKLKEAAEQLAKLAREAADVLDATPWEDPIQQEVLIMEANGLEIEAIGILLKLE
B13: LC3A_28_908 (protein)
chain: GSSLKELEEALKKVEAAVAAGDTEPLVLEVTAPSNQEDVEKFLELLERLAEEASKLPGVSIIIDIDESVSQENKDKIIDKAEELEKKYPNVTVIIALPES
B14: LC3A_28_1106 (protein)
chain: SRVDEDNEKALAEAREAAAAGEPAVVTLNVYETDTEEDIEKKLETLREIAEILADLPGAAIIVNFIGKIKQEHIDKVADLGEEIEERYPNVTVILALDEE
B15: LC3A_3_1404 (protein)
chain: FEEIKAEILEELKKMGASEEVLEAAKKVMEKLEERGYLEAARELLREVKELKNASDEILLWFFEEVLEYLETNDDSEEEVVEFIREEARIAKSEQEIEEL
B16: LC3A_free_0_2096 (protein)
chain: TTVVVEVVAISKEKLSEEQVKKLKEALEKKAKEISEKRGWKTKVEVSEVDGRTIFTFTAESEKATLDEGLELEREIADFVEEKFKELGAEATIYTSVYEV
B17: LC3A_45_1982 (protein)
chain: MWEATIDLLVPRELAEEAYAILKEAGAELVARHGDDLKVDWDALDASYEASRDEEEVYLRLNIYHPDKQVALDSAVEIVDRLEERLGRKVAAIISVKEVP
B18: LC3A_free_39_2202 (protein)
chain: SSEREREYEERLLELAAKAGEEALEEAKRLLELVKGNPELVETVLELVERAVKEGADVLELLRRLKELVEELLKKGKSEEEIIEELKEEGRVIIELIPIE
B19: LC3A_free_39_2224 (protein)
chain: SQEEIEKLIKEVAKESGVDLEELRAKIEEIKKVAGLSDEQILEIVKGILEAVKAGADAKEIVDESLALAKELKAQGKSPEEIKEALLELIKDYRNLVPLD
B20: LC3A_28_835 (protein)
chain: SHAEEQIKKAKEQLEKAKETKEDVLVEITITSSMTPEEAKEIMDAVEEEISKLDKSIKVSILVLGEEELSQEVIDVIADKGEEIEKKFPNVNFIIALPEP
B21: LC3A_17_589 (protein)
chain: NEKIKKELERLLKELEELIKKAKELGLPEAEKVEKLLEEAKKALEEGDLKKAAEILKEAADLLADALSEVEEEKGSEASVLEMEANGLALEAEGILLKLE
B22: LC3A_28_1113 (protein)
chain: SAIDKNIEAALAEAKEAAARGEPVVVTIKVKATDSQEDIDKVIKALYEIAEILKDVKDAAIIIDLDGKIPQEHLNKLADAAEEIEKKYPNITVIIALDEE
B23: LC3A_3_1514 (protein)
chain: MEEIKKETLELLKKAGASEEVLELAEEALNLLIEKGYEEAAKELAEEMKKLANLPDELLLEFLKDVIELVKTSNLSEEELIKEIKELAKVYENESEIEEL
B24: LC3A_147_449 (protein)
chain: MLYEITVDALFKNDPALAEEVAEQLKAIAEKHGGEVEVEFEEEQVSPTTTEYFLNVTITFEDKAKAQAAETEIAALLDETAAKHPDKFLGAILSFEEVEP
B25: LC3A_28_793 (protein)
chain: SEIEATLAAARAEAEEARARGEEAVIEVRVPKGTTPEDAERIVEGLREIAEAAADLPRLSFVIDLERGVSQEVIDILARGGEEIEERYPNVSVVIALEEE
B26: LC3A_102_161 (protein)
chain: KVEEEIKKIIEEEVKKMKEFLEKEKSLTEEEKEEILKIVKEALEALAEILLSEAQHGFEDIEALDKLLKAKEELKKYPEKVKKKAEEILEEAKKKIEELL
B27: LC3A_3_1487 (protein)
chain: MEELLERAREVLEKRGASEEQIAAVLADLAAVLARGYERTVEEFIRLLEEYPDLSPEKIVAAAGTIRDVVEEEDLTEEEAVEKTREIVEDVHEIEELEEE
B28: LC3A_free_46_2348 (protein)
chain: YKAEILIDLLAKDKETLEKAVKEIVEEAKKIAEKYNLELEIKVKIEKLEDGSYYAEIEITLKGETEEDLQKAVNELINKIEEIAKKYGVAAIISYEIIKE
B29: LC3A_3_1529 (protein)
chain: FEAIRAEVLALAKEAGADPETIATADEALDLLEARGYENAAKTFLEEVKELAGISPETLAEFIRDVLELLLTEDLDEETLSKRIKEIARTAKNAAEIEEL

Target: MAP1LC3A, Q9H492
Assay: median log2 fold change of GCK-ALFA target abundance (FLAG IP / Myc IP barcode read proportion) (log2 ratio); each designed protein is fused to an ALFA-tag nanobody in HEK293 cells to bring the named protein to FLAG-tagged glucokinase (GCK); Myc marks an untargeted standard; higher = target protein stabilised (more abundant)
Details: target protein: 3xFLAG-MCP-GCK-ALFA reporter; HEK293 landing pad (RPLP)
Procedure, shortened: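 HEK293 landing-pad cells received a recombined binder library fused to the ALFA nanobody and were induced with 2 μg mL^−1 doxycycline, then transfected with a plasmid encoding a FLAG-tagged target and a Myc-tagged standard. Lysates were collected after 48 h for anti-FLAG and anti-Myc immunoprecipitation, and the circular RNA barcodes were reverse transcribed, amplified and sequenced. Target abundance for each binder is the median log2 ratio of FLAG to Myc barcode read proportions. Barcodes had to reach a proportion of at least 10^−7 in both replicates, each binder needed at least 3 barcodes per replicate, a pseudocount of 10^−6 was applied, and the two replicates were pooled.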

Going from B1 to B2, the “median log2 fold change” value falls from 0.169 to -0.487.

B3 and B4 are within 0.2 log units of each other in “median log2 fold change” value: 0.0196 for the first, 0.162 for the second.

Going from B5 to B6, the “median log2 fold change” value falls from 0.4 to 0.0103.

B7 and B8 are within 0.2 log units of each other in “median log2 fold change” value: 0.168 for the first, 0.215 for the second.

B9 and B10 are within 0.2 log units of each other in “median log2 fold change” value: 0.154 for the first, 0.18 for the second.

Compared with B11, B12 is lower in “median log2 fold change” value: 0.309 for the first, -0.0226 for the second.

B13 and B14 are within 0.2 log units of each other in “median log2 fold change” value: -0.123 for the first, -0.102 for the second.

B15 and B16 are within 0.2 log units of each other in “median log2 fold change” value: 0.00419 for the first, -0.0514 for the second.

B17 and B18 are within 0.2 log units of each other in “median log2 fold change” value: 0.0214 for the first, 0.0985 for the second.

B19 and B20 are within 0.2 log units of each other in “median log2 fold change” value: 0.303 for the first, 0.137 for the second.

Going from B21 to B22, the “median log2 fold change” value falls from 0.375 to 0.157.

First: B23
Second: B24
The “median log2 fold change” value of the first is higher: 0.233 for the first, -0.603 for the second.

First: B25
Second: B26
The “median log2 fold change” value of the first is lower: 0.221 for the first, 0.458 for the second.

Going from B27 to B28, the “median log2 fold change” value falls from 0.0753 to -0.204.

With B29 the “median log2 fold change” value was 0.174.
